# Measured values taken from the supplement of paper PMC3334620.
# Over roughly 33,000 sequences, “E-score (-0.5 to 0.5)” has its median near -0.017; the highest 2% begin near 0.3. The list shows a part of the results.
# Target: T1, Sut1 (UniProt P53032)
# T1 sequence: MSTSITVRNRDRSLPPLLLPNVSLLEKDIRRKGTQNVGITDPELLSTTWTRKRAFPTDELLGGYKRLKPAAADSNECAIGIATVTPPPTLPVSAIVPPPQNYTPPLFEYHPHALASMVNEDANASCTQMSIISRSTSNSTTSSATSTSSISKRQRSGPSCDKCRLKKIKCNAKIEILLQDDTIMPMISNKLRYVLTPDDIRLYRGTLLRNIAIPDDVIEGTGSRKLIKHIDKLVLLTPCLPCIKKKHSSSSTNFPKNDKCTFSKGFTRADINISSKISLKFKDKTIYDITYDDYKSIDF
# Test: PBM E-score (8-mer binding enrichment) (E-score (-0.5 to 0.5)); higher = stronger / more preferred TF binding; most listed sequences are background and not binding sites
# Conditions: protein concentration: 200 nM; construct: GST-full length
# Outline: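 Bound GST-tagged yeast transcription factors, applied at about 100-200 nM to double-stranded universal all-10-mer Agilent arrays, were detected with fluorescent anti-GST. Scans were normalised with masliner. A modified Wilcoxon-Mann-Whitney statistic, the E-score, was assigned to each ungapped eight-base word pooled with its reverse complement by the Universal PBM Analysis Suite.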
row,Sequence,PBM E-score
1,GACTGTAA,-0.0121
2,AGCCTTCC,-0.158
3,ATCGGTTC,0.113
4,TACGGCTA,-0.0196
5,CAGATGAG,-0.0746
6,AACGGCTT,-0.19
7,CTCATGTC,-0.0587
8,GCAGGTGA,-0.306
9,AGCCATGG,-0.264
10,TAAACCGA,0.091
11,CGTGGGGA,-0.202
12,GTTCGTCA,-0.11
13,AGCCCTGC,-0.0685
14,AGGGCCAT,-0.139
15,CCGATCAC,0.203
16,CTAGGGCC,-0.239
17,GCTAAGAC,-0.277
18,ATAAACGC,0.0289
19,CCGTTGGC,-0.137
20,CAAGCTCG,0.00718
21,CTGTATCC,0.0447
22,ATACCCTA,0.0827

row,Sequence,PBM E-score
1,CGTTGCAA,-0.00253
2,AATCTCTA,0.0586
3,CACCGCCG,-0.182
4,CAATATGA,0.181
5,AGTAGACC,-0.172
6,CTGCCTGC,-0.14
7,CACCCCTA,-0.293
8,CCGGAGTC,0.484
9,GCTATAGA,-0.0561
10,CGGACCTC,0.411
11,CGCTTGGC,-0.388
12,CGAGACTA,0.115
13,GATGCGGC,-0.172
14,AGTTTAAC,0.0735
15,GCAGGGGA,-0.296
16,CGGAACGC,0.0642
17,AGCCTGGC,-0.173
18,GTAGCCCA,-0.208
19,TCGATGAA,0.177
20,ATCATCAA,0.0572
21,ATTCTCTC,4e-05
22,AAGTGAGA,-0.086

row,Sequence,PBM E-score
1,CGCTCGTA,-0.145
2,TAACTGCA,0.0867
3,CTACAATA,0.181
4,TAGCGGGA,-0.164
5,GCTACAAC,0.0937
6,ATTCAACC,0.00502
7,AGTCGCTG,-0.202
8,TAAGTGGA,0.0529
9,CCGGAAGC,0.208
10,ATCTCCAA,0.158
11,ACAGTAAG,0.0205
12,GTCCCTCA,-0.272
13,CGGTCTCA,0.00484
14,GTCAAGCA,-0.343
15,AGTTAAAT,0.225
16,GGGCATGA,-0.273
17,CTATATTC,0.0472
18,ACGAGGCT,-0.025
19,CTAATGGA,0.0635
20,CCCCGATC,-0.0506
21,TTTCAAAA,0.282
22,AACTGGTA,0.0222

row,Sequence,PBM E-score
1,TAGGGGGA,-0.131
2,GTTCCGAA,0.267
3,AGTACACT,-0.092
4,TCAGCAGA,-0.153
5,GTGTTTTA,0.122
6,CCTCCGGA,0.374
7,AACGAGGT,-0.114
8,ATTAACCA,0.102
9,AACACCAG,-0.074
10,CCGAGCAG,-0.0299
11,AGGGGGAC,-0.308
12,ACCGCTTC,-0.0583
13,CCAGGTGA,-0.216
14,ATGGTATG,0.00799
15,GTATCTTA,0.216
16,CCAAATAA,0.0249
17,AAATCAAG,0.144
18,ACATGACA,0.165
19,CCAATCTC,0.131
20,ACCTAACC,0.04
21,TCGGCAGA,-0.00987
22,ACCCAACC,0.067

row,Sequence,PBM E-score
1,AAGAACTT,0.183
2,CTTTCTCA,0.208
3,GAAAAAAC,0.268
4,ATAATGAT,0.273
5,CTTGATGC,-0.0328
6,AGATGGAG,-0.143
7,AGGTGCCA,-0.00648
8,CACCTGGC,-0.206
9,GAGTAGGC,0.0511
10,GCGGTAGC,-0.146
11,ATACCACA,0.0667
12,ATACGGTA,0.168
13,CGAGACCC,-0.13
14,CGTGTTCC,0.113
15,CTTCGTTC,-0.00724
16,GCGTCTCC,-0.033
17,GAGACGAA,-0.0447
18,ATGTGATC,0.144
19,CGTATAAA,0.214
20,GCCTATCA,0.042
21,ATATAGGA,0.0279
